# Measurements taken from the supplement of paper PMC11417369.
# Some of the results follow.
# Test system: PfHDP1 homeodomain (GST-tagged)
# Assay: gcPBM binding intensity (ln(normalized median fluorescence intensity)); higher = stronger DNA binding
# Summary of the method: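 For binding intensity, the highest Masliner-normalised natural-log median intensity across replicate spots of either probe orientation was taken. Protein bound to the array was stained with Alexa488 anti-GST antibody and scanned at 488 nm. The protein, GST-tagged P. falciparum DNA-binding domains from E. coli at about 25 μg on average, had been applied for 1 h to an Agilent 4 × 180k array of primer-extended double-stranded 36-bp intergenic genomic probes and negative controls.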
row,Sequence,gcPBM binding intensity (ln)
1,CTTAAATCTACTATTTGTACATATTTTATTATTAAA [XGTACX_site6151],6.38
2,AGCATATATTAAACATGTACATAAATATATTATATA [XGTACX_site1451],6.39
3,TGTTATATATATACAAACATACACATTTATAAACAA [TGCATGCA_negctrl_site235],6.73
4,TATTAATTTCTTTTTTCTCATCACTTTCAAAATGAA [CACACA_negctrl_site1055],6.35
5,TTATGATCATTTATATGTACACATAATTTTTGTGCT [XGTACX_site5568],6.7
6,GTTCAAATTCTTATACCTTTTTATTGAGCCATAATA [CACACA_negctrl_site210],6.73
7,AAAAAAAGAAAAAAAACACACACAAATATAAATAAA [CACACA_site8309],6.66
8,GAATGAATGATAAATTTTTTTTTCTTTTTTTTTTTG [CACACA_negctrl_site333],5.67
9,TATATATTTGTGAAAATATTAAAATAAATAAATAAA [CACACA_negctrl_site295],6.45
10,AAAATCTAGGTATTTATACACACTAATATAATATAC [CACACA_site8108],6.36
11,TAAAAAAAGAGATATTGTACACAAAAAAATTTTACT [XGTACX_site1342],6.59
12,AAGTTCAAAATAAATGGTACAGAAGTATATATATCA [XGTACX_site174],6.45
13,TAGAAAAAAAAATACATACACACAATATATTTATTT [CACACA_site3123],6.21
14,CCATATATAATGACATGTACTCAAAAAAAAAAAAAA [XGTACX_site685],6.37
15,TAATTCAAACGTGTATGTATATTACTCGAAGAAATA [CACACA_negctrl_site1779],6.2
16,TTTCAAGGATTTAATTTATGGAAACCTTCTTCATTT [GTGCAC_negctrl_site504],5.94
17,TTTTTAAAAAAAAATAGAGAGTCAAAGTATGTGGCG [CACACA_negctrl_site194],6.82
18,TTTCTCTTTTTTTGGGGTACAACCAATCCTATAATA [XGTACX_site297],6.81
19,ATACATATATATATATGTACATATATTTATATTTAT [XGTACX_site3155],6.42

row,Sequence,gcPBM binding intensity (ln)
1,AACCCTTTTGATTTTTCTTTTTTTTTTTTTTTAAAT [CACACA_negctrl_site1667],6.15
2,CATATAAGACAAAAGGTGCAATTTTAATGCTTTTAT [GTGCAC_site9432],8.29
3,TAGTAAAATGGAACACGTACATATATCTATGTATAA [XGTACX_site6103],6.35
4,AGAAGGATATTATGAAGTACACATATTGTATATGGT [XGTACX_site7503],6.32
5,ACAGTTTGTCTGAGTAGTACATAAATACTTGAAAGG [XGTACX_site7792],6.36
6,AGGAAAATAATTAAAGCATGCTCATTATGAAATATA [TGCATGCA_site855],7.07
7,AATACATGAACTTAAAGTACTAAAAAAAAAATAATA [XGTACX_site1956],6.46
8,ACAAATAAAAAAATTACACACATATAAAATATAGAT [CACACA_site6756],6.37
9,TATGAGAACAAACATTGTACAATAAAAAGTAGATAT [XGTACX_site920],7.47
10,CTCAAATAACTTTTTACACACATTATTTGAAATAAG [CACACA_site6722],6.7
11,CAGAATACATACATTACACACAAATTTAAGTATATA [CACACA_site1781],6.36
12,ATATGAATGATCGTACGTACTTACATATTTATAAAG [XGTACX_site8041],6.51
13,TACCCACTAAAATACACACACACACCCACATATATA [CACACA_site6141],7.13
14,AATTTGAATATTTGATGTACAAAGTTTTTTAATGTT [XGTACX_site3249],6.14
15,TCTTACACTAATAAATGTACATACAAAAAATCTATT [XGTACX_site1379],6.37
16,AAATGTATAATTTTTTAATACACTTATTTAAAATAA [CACACA_negctrl_site797],6.17
17,ATAAATATAACATATTGTACCCTTAAAAAGGAACAA [XGTACX_site352],5.92
18,GTACCAACAGCACTACTTCTCGCCATTTTCTTGTAG [XGTACX_negctrl_site97],6.8
19,GAGAGGATAGTTCACAGTACCCAGTAACTCTACGGA [XGTACX_site4876],6.02

row,Sequence,gcPBM binding intensity (ln)
1,TAAGTATATTTCTGCACACAAAAAAAAAAACCAAAA [CACACA_site4056],7.92
2,AAAATTTAATATGAATGTACATAAAAAAAAAAAAAA [XGTACX_site6719],6.76
3,TATATATATATATATGTGCACATTTATTGCCTTTGC,10.6
4,TATAAATAAAGACTTTTTTCTAACTTTTTTTTGTAT [CACACA_negctrl_site1015],6.23
5,ATATCTATAATAAACACACAAATAGATATAACATAT [CACACA_site7702],6.68
6,AAAAAAAAATTAAAAACACACATATATATATATATA [CACACA_site1580],9.48
7,AAAAAAAAAAAAACAACACACAATGTTTTATTTTAC [CACACA_site1613],6.19
8,TAAAACAAAATAACATGTACAAAAAAAAAAAAAAAA [XGTACX_site2915],6.37
9,ATGTAATATGTTCATGCATGTAAAATTACATTTAGA [TGCATGCA_site852],6.38
10,CATATAAGAATCTTCTGTACTTATAAGAAAAGACAT [XGTACX_site8135],6.37
11,ATACACAAATGCATACGTACATATATATATATATAT [XGTACX_site3504],9.35
12,AAGGTAAAATATAAGTGTACTTTTTCTTAATCTTCG [XGTACX_site514],6.02
13,TAATATTTATATAATTGTACTTTGTTTGTAAATCCA [XGTACX_site7292],6.21
14,GGACGTATTAAAAGGCGTACACTAAATATTTTATGT [XGTACX_site146],6.49
15,AAGATAATTACGCACACACACACACGCCCACAACTA [CACACA_site7255],8.48
16,ATTATAATTTTGTAAAGTACATATTATTATATATTA [XGTACX_site7191],6.05
17,AATGAAACAATACCCAGTAAAAAAAAAAAATAAATA [TGCATGCA_negctrl_site205],6.53
18,ATATTTTTTTTCTTCACACACATGAGTTATAAATAA [CACACA_site7498],6.94
